# T1: Tpx-Flag-6×His (thiol peroxidase) (UniProt P0A862 1-168)
# T1 construct: thiol peroxidase (Tpx); active-site Cys61; Plasmid pET-22b-Tpx-Flag-6×His; source: E. coli BL21(DE3), purified (Ni-NTA)
# T1 sequence (looked up): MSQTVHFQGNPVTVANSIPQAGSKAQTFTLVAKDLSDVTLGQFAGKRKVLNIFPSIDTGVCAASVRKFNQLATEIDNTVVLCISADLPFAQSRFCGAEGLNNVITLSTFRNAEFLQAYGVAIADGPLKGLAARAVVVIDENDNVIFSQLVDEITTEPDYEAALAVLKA
# B1: Trx1-6×His (thioredoxin 1) (enzyme)
# chain: not shown
# notes: thioredoxin 1 (Trx1) of E. coli; active-site Cys33; also called His-tagged Trx1; Trx1 WT; source: E. coli BL21(DE3), purified (Ni-NTA) from pET-22b; also co-expressed from pRSF-Duet1 in live BL21(DE3) cells
# Target: T1, Tpx-Flag-6×His (thiol peroxidase)
# Assay: cross-linking; in vitro: 10 μM Trx1 and 10 μM Tpx or PAPR in Hepes buffer pH 8.0, 0.5 mM BVSB or PDES, RT, 4 h, stopped with 100 mM DTT; Western blot and MS of cross-linked peptides (trypsin and Glu-C)
# Conditions: both partners purified
binder,measurement,value
B1,binding result,binds
